The antibiotic and cytotoxicity screens of Wong et al. (2023)
This is one part of the list.

How the values were obtained:
HSkMC = human skeletal muscle cells; assay: cytotoxicity call (relative viability < 0.9); conditions: 10 µM
HepG2 = assay: cytotoxicity call (relative viability < 0.9); conditions: 10 µM
S. aureus RN4220 = assay: growth inhibition call (relative growth <= 0.2); conditions: 50 µM

C[C@@H]1CN([C@H](C)CO)C(=O)c2c(c3ccccc3n2C)-c2ccccc2CO[C@H]1CN(C)C(=O)Nc1ccccc1C(F)(F)F
inactive: cytotoxicity call (HSkMC) | cytotoxicity call (HepG2) | growth inhibition call (S. aureus RN4220)

COc1cccc(S(=O)(=O)Nc2ccc3c(c2)[C@@H]2C[C@H](CC(=O)NCc4ccccc4F)O[C@@H](CO)[C@@H]2O3)c1
inactive: cytotoxicity call (HSkMC) | cytotoxicity call (HepG2) | growth inhibition call (S. aureus RN4220)

C[C@@H]1CCCCO[C@@H](CN(C)C(=O)Cc2ccccc2)[C@@H](C)CN([C@@H](C)CO)C(=O)c2cc(NC(=O)Nc3ccc4c(c3)OCO4)ccc2O1
inactive: cytotoxicity call (HSkMC) | cytotoxicity call (HepG2) | growth inhibition call (S. aureus RN4220)

C[C@@H]1CN([C@H](C)CO)C(=O)c2cccc(NS(C)(=O)=O)c2O[C@H]1CN(C)S(=O)(=O)c1cccs1
inactive: cytotoxicity call (HSkMC) | cytotoxicity call (HepG2) | growth inhibition call (S. aureus RN4220)

C[C@H](CO)N1C[C@H](C)[C@H](CN(C)S(=O)(=O)c2ccccc2F)Oc2cc(-c3ccncc3)ccc2S1(=O)=O
inactive: cytotoxicity call (HSkMC) | cytotoxicity call (HepG2) | growth inhibition call (S. aureus RN4220)

COc1ccccc1S(=O)(=O)N1C[C@H](O)COC[C@@H]2O[C@@H](CC(=O)O)CC[C@H]21
inactive: cytotoxicity call (HSkMC) | cytotoxicity call (HepG2) | growth inhibition call (S. aureus RN4220)

CN(C)CCCNC(=O)[C@@H]1[C@@H](CO)[C@@H]2Cn3c(ccc(-c4ccncc4)c3=O)[C@H]1N2C(=O)C1CC1
inactive: cytotoxicity call (HSkMC) | cytotoxicity call (HepG2) | growth inhibition call (S. aureus RN4220)

C[C@@H]1CN([C@H](C)CO)C(=O)c2cc(NS(C)(=O)=O)ccc2O[C@H]1CN(C)C(=O)Nc1ccccc1
inactive: cytotoxicity call (HSkMC) | cytotoxicity call (HepG2) | growth inhibition call (S. aureus RN4220)

O=C(c1ccc(F)cc1)N1c2ccccc2C=Cc2ccccc21
inactive: cytotoxicity call (HSkMC) | cytotoxicity call (HepG2) | growth inhibition call (S. aureus RN4220)
